Test results as given in US20240158515A1, “ANTI-FGFR3 ANTIBODIES AND ANTIGEN-BINDING FRAGMENTS AND METHODS OF USE THEREOF” (Regeneron Pharmaceuticals, Inc., priority 2022, published 2024).
Substitutions are numbered along the chain they refer to.

B1: H4H30071P: anti-FGFR3 antibody; HCVR/LCVR SEQ ID NOs: 42 & 50; HC/LC 58 & 60 (antibody)
heavy: QVQLQQSGPGLVKPSQTLSLTCAISGDSVSRNSAAWNWIRQSPSSGLEWLGRTYYRSKWFYDYAISVKSRITVNPDTSKNQFSLHLNSVTPEDTAVYYCARGYGGYEDYFDYWGQGTLVTVSSASTKGPSVFPLAPCSRSTSESTAALGCLVKDYFPEPVTVSWNSGALTSGVHTFPAVLQSSGLYSLSSVVTVPSSSLGTKTYTCNVDHKPSNTKVDKRV[sequence of human IgG4 Fc with S228P (EU numbers) not given]
light: DIQMTQSPSSVSASVGDRVTITCRASQGISSWLAWYQQKPGKAPKLLIYGASSLQSGVPSRFSGSGSGTDFTLTISSLQPEDFATYFCQQGSSFPYTFGQGTKLEIKRTVAAPSVFIFPPSDEQLKSGTASVVCLLNNFYPREAKVQWKVDNALQSGNSQESVTEQDSKDSTYSLSSTLTLSKADYEKHKVYACEVTHQGLSSPVTKSFNRGEC
notes: anti-FGFR3 antibody; HC/LC 58 & 60
B2: H4H30076P: anti-FGFR3 antibody; HCVR/LCVR SEQ ID NOs: 122 & 130; HC/LC 136 & 138 (antibody)
heavy: EVQLVESGGGLVQPGGSLRLSCAASGFTVSSNYMSWVRQAPGKGLEWVSIIYSGGHTYYSDSVKGRFTISRHNSKNTLYLQMNSLRGGDTAVYYCARGYTSGWYGFDFWGQGTLVTVSSASTKGPSVFPLAPCSRSTSESTAALGCLVKDYFPEPVTVSWNSGALTSGVHTFPAVLQSSGLYSLSSVVTVPSSSLGTKTYTCNVDHKPSNTKVDKRV[sequence of human IgG4 Fc with S228P (EU numbers) not given]
light: B1 light with S31T, G50A, S65T, F87Y, G91T, S92N, Y96W, L104V
notes: anti-FGFR3 antibody; HC/LC 136 & 138
B3: H4H30045P: anti-FGFR3 antibody; HCVR/LCVR SEQ ID NOs: 179 & 187; HC/LC 195 & 197 (antibody)
heavy: QVQLVQSGAEVKKPGASVKVSCKTSGYRFVNYGFSWVRQAPGQGLEWMGWISPYNGNTNYIQNLQDRITMTTDTSTNTAYMELTNLRSDDTAVYYCATLTGVHFDYWGQGTLVTVSSASTKGPSVFPLAPCSRSTSESTAALGCLVKDYFPEPVTVSWNSGALTSGVHTFPAVLQSSGLYSLSSVVTVPSSSLGTKTYTCNVDHKPSNTKVDKRV[sequence of human IgG4 Fc with S228P (EU numbers) not given]
light: AIQMTQSPSSLSASVGDRVTITCRASQGIRNDLGWYQQKPGKAPNLLIFETSRLQSGVPSRFSGSGSGTDFTLTINSLQPEDFATYYCLQDYNYPWTFGQGTKVEIKRTVAAPSVFIFPPSDEQLKSGTASVVCLLNNFYPREAKVQWKVDNALQSGNSQESVTEQDSKDSTYSLSSTLTLSKADYEKHKVYACEVTHQGLSSPVTKSFNRGEC
notes: anti-FGFR3 antibody; HC/LC 195 & 197
B4: H4H30061P: anti-FGFR3 antibody; HCVR/LCVR SEQ ID NOs: 199 & 207; HC/LC 215 & 217 (antibody)
heavy: EVQLVESGGGLAQPGGSLKLSCEASGFTFSDSAMHWVRQASGKGLEWVGRIRSKANSYATGYAASVKGRFTISRDDSKNMAFLEMNSLKTEDTAVYYCLRQTYGDPWGQGTLVTVSSASTKGPSVFPLAPCSRSTSESTAALGCLVKDYFPEPVTVSWNSGALTSGVHTFPAVLQSSGLYSLSSVVTVPSSSLGTKTYTCNVDHKPSNTKVDKRV[sequence of human IgG4 Fc with S228P (EU numbers) not given]
light: DVVMTQSPLSLSVTLGQPASISCRSSLSLVYSDGNNYLNWFQQRPGQSPRRLLYKVFNRDSGVPDRFSGSGSGTDFTLKISRVEAEDVGVYYCMQGTHWPWTFGQGTKVEIKRTVAAPSVFIFPPSDEQLKSGTASVVCLLNNFYPREAKVQWKVDNALQSGNSQESVTEQDSKDSTYSLSSTLTLSKADYEKHKVYACEVTHQGLSSPVTKSFNRGEC
notes: anti-FGFR3 antibody; HC/LC 215 & 217

Tests used:
Conditions in all cases: 25° C.
[1] = target: T1, dimeric human FGFR3b (hFGFR3b.mFc, REGN3153) (Homo sapiens, UniProt P22607); assay: Biacore SPR binding kinetics, dimeric human FGFR3b to captured antibodies
T1 construct: REGN3153 (human FGFR3b expressed with a C-terminal murine Fc tag)
Method: (§1) Biacore binding kinetics of anti-FGFR3 antibodies, in an antibody capture format, to monomeric human FGFR3b, cynomolgus FGFR3b, murine FGFR3b, human FGFR3c, and dimeric human FGFR3b ecto domain recombinant proteins at 25° C. were analyzed.
(§2) Equilibrium dissociation constants (KD values) for human FGFR3b expressed with a C-terminal myc-myc-hexahistidine tag (hFGFR3b.mmH, REGN3152) or cynomolgus FGFR3b expressed with a C-terminal myc-myc-hexahistidine tag (mfFGFR3b.mmH, REGN3521), or murine FGFR3b expressed with a C-terminal myc-myc-hexahistidine tag (mFGFR3b.mmH, REGN3215) or human FGFR3c expressed with a C-terminal myc-myc-hexahistidine tag (hFGFR3c.mmH, REGN3155) or human FGFR3b expressed with an C-terminal murine Fc tag (hFGFR3b.mFc, REGN3153) binding to purified anti-FGFR3 antibodies were determined using a real-time surface plasmon resonance biosensor technology using a Biacore 3000 or Biacore 4000 instrument. The CM5 Biacore sensor surface was derivatized by amine coupling with a monoclonal mouse anti-human Fc monoclonal antibody (REGN2567). All Biacore binding studies were performed in a buffer composed of 0.01M HEPES pH 7.4, 0.15 M NaCl, 3 mM EDTA, 0.05% v/v Surfactant P20 (HBS-EP running buffer). Different concentrations of monomeric proteins prepared in HBS-EP running buffer (ranging from 90 nM to 3.33 nM in 3-fold serial dilutions) or dimeric protein (hFGFR3b.mFc, REGN3153) prepared in HBS-EP running buffer (ranging from 30 to 10 nM in 3-fold serial dilution) were injected over the captured anti-FGFR3 antibodies at a flow rate of 30 μL/minute. Antibody-reagent association was monitored for 5 minutes while dissociation in HBS-EP running buffer was monitored for 10 minutes. At the end of each cycle, the anti-FGFR3 antibody capture surface was regenerated using a 10 sec injection of 20 mM phosphoric acid. All binding kinetics experiments were performed at 25° C.
(§3) The specific SPR-Biacore sensorgrams were obtained by a double referencing procedure. The double referencing was performed by first subtracting the signal of each injection over a reference surface (anti-hFc) from the signal over the experimental surface (anti-hFc-captured anti-FGFR3 antibodies) thereby removing contributions from refractive index changes. In addition, running buffer injections were performed to allow subtraction of the signal changes resulting from the dissociation of captured antibodies from the coupled anti-hFc surface. Kinetic association (ka) and dissociation (kd) rate constants were determined by fitting the real-time sensorgrams to a 1:1 binding model using Scrubber v2.0c curve fitting software. Binding dissociation equilibrium constants (KD) and dissociative half-lives (t½) were calculated from the kinetic rate constants as: […]

[2] = tested on: cynomolgus FGFR3b (mfFGFR3b.mmH, REGN3521); assay: Biacore SPR binding kinetics, monomeric cynomolgus FGFR3b to captured antibodies
Method: as §1, §2, §3

[3] = target: T2, human FGFR3b (hFGFR3b.mmH, REGN3152) (Homo sapiens, UniProt P22607); assay: Biacore SPR binding kinetics, monomeric human FGFR3b to captured antibodies
T2 construct: REGN3152 (human FGFR3b expressed with a C-terminal myc-myc-hexahistidine tag)
Method: as §1, §2, §3

[4] = target: T3, murine FGFR3b (mFGFR3b.mmH, REGN3215) (Mus musculus, UniProt Q61851); assay: Biacore SPR binding kinetics, monomeric murine FGFR3b to captured antibodies
T3 construct: REGN3215 (murine FGFR3b expressed with a C-terminal myc-myc-hexahistidine tag)
Method: as §1, §2, §3

[5] = target: T4, human FGFR3c (hFGFR3c.mmH, REGN3155) (Homo sapiens, UniProt P22607); assay: Biacore SPR binding kinetics, monomeric human FGFR3c to captured antibodies
T4 construct: REGN3155 (human FGFR3c expressed with a C-terminal myc-myc-hexahistidine tag)
Method: as §1, §2, §3

T3 sequence (Q61851 with tags, fused parts or gaps isoform Q61851-2): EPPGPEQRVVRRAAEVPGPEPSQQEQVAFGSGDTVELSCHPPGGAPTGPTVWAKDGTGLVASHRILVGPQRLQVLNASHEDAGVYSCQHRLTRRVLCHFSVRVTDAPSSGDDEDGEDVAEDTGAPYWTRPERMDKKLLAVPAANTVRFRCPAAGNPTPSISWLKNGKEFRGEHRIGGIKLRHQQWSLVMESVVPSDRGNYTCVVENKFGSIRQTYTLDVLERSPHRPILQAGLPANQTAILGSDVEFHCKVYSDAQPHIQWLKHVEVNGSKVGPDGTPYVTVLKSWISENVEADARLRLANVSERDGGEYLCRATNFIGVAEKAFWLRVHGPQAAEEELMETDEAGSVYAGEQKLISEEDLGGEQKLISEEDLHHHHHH
T4 sequence (P22607 with tags, fused parts or gaps): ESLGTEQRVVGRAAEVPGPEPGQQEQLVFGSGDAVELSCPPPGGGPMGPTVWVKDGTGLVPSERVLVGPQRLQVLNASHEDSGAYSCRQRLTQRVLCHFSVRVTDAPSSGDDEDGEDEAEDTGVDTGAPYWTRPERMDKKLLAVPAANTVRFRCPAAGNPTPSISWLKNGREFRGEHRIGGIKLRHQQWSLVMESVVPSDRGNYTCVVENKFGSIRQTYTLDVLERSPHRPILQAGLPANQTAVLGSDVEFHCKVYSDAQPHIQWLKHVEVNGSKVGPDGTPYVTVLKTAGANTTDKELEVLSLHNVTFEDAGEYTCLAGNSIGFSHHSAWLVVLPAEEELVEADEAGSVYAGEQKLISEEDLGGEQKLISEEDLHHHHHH
T2 sequence (P22607 with tags, fused parts or gaps isoform P22607-2): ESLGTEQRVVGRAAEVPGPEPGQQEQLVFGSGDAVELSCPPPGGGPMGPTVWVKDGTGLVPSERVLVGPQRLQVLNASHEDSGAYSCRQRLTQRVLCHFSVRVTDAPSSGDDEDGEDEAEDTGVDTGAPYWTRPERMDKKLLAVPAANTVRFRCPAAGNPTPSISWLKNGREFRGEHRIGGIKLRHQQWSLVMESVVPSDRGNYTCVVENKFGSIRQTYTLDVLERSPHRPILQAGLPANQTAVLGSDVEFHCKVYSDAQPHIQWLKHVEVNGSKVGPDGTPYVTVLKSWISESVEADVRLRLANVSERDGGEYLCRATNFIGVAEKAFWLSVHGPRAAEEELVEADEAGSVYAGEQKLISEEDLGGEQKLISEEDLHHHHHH
T1 sequence (P22607 with tags, fused parts or gaps isoform P22607-2): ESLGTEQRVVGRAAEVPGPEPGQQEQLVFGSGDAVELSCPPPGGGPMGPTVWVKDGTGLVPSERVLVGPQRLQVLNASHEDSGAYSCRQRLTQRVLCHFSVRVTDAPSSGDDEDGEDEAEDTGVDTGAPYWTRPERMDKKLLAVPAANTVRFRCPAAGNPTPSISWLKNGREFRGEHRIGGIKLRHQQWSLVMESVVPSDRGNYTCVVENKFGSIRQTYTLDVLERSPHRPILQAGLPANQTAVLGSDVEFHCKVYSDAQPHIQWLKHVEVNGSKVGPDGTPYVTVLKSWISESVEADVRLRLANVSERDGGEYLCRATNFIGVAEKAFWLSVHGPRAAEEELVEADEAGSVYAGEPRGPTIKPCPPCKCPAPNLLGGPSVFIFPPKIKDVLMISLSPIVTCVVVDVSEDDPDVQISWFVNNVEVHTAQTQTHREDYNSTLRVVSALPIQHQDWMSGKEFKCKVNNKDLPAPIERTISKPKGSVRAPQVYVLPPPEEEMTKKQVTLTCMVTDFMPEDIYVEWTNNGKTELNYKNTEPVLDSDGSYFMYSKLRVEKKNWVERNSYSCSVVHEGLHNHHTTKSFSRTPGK

Molecule | ka [1] [M⁻¹ s⁻¹] | kd [1] [s⁻¹] | ka [2] [M⁻¹ s⁻¹] | kd [2] [s⁻¹] | ka [3] [M⁻¹ s⁻¹] | kd [3] [s⁻¹] | ka [4] [M⁻¹ s⁻¹] | kd [4] [s⁻¹] | ka [5] [M⁻¹ s⁻¹] | kd [5] [s⁻¹]
B1 | 322000 | ≤1e-05 | 180000 | 2.22e-05 | 216000 | 2.96e-05 | 220000 | 0.00169 |  | 
B2 | 407000 | ≤1e-05 | 200000 | 3.3e-05 | 236000 | 4.39e-05 | 256000 | 3.61e-05 |  | 
B3 | 277000 | 0.000161 | 429000 | 0.00882 | 385000 | 0.00624 |  |  | 381000 | 0.00746
B4 | 231000 | ≤1e-05 |  | 9.83e-05 | 173000 | 8.74e-05 |  |  | 151000 | 7.92e-05
